Data published in PubChem BioAssay AID1963576 (National Center for Advancing Translational Sciences (NCATS), 2024).
Screen size: about 46,000 compounds; about 60 (0.1%) were called active. Inconclusive results (about 3%) are left out. The call rests on the fitted dose curve; in most records, active means well fitted inhibition curve with a large enough effect; inconclusive means small, poorly fitted or top-dose-only effect; inactive means no such curve, though single readings can be large or run the other way. The list shows a part of the results.

Assay: Primary qHTS assay for Inhibitors of ovarian cancer metastasis using an organotypic tumor microenvironment (TME) model. Further: nearly all actives have a fitted effect of over 65% in size.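 On activity change, negative = inhibition: plate controls were DMSO wells for no effect and tomatine positive control wells for full effect.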
Details: SKOV3ip1-GFP adhesion/invasion on 3D omental model, fluorescence; series mostly up to 45.8 µM; activity change, negative = inhibition: at the top concentration
Summary of the method: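 Adhesion/invasion was scored as fixed GFP-labeled SKOV3ip1 cell counts (488/509 nm), normalized to DMSO and tomatine controls. Cancer cells in serum-free medium, with four compound doses (0.36-46 umol/L), sat 2 hr at RT then 16 hr at 37 C on a 48 hr fibroblast/mesothelial/ECM culture.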

Activity change, negative = inhibition, inactive:
O=C(O)CCNC(=O)c1ccc(N=Nc2ccc(O)c(C(=O)O)c2)cc1 18.7%
COc1ccc(-c2cc(C(=O)OCC(=O)c3cccc(OC)c3)c3cccc(Cl)c3n2)cc1 -6.51%
CCOC(=O)c1c(NC(=O)c2cc(=O)c3c(C)cc(C)cc3o2)sc2c1CCC2 1.79%
COc1ccc(NC(=O)C2CCN(c3nc(-c4ccc(OC)c(OC)c4)no3)CC2)cc1Cl -11.6%
Cc1ccc(C)c(NC(=O)Cn2nnc(C(=O)NCc3ccco3)c2N)c1 -0.521%
CNC(=O)C1CCN(C(=O)N2CC(C)Oc3ccc(C)cc32)CC1 (stereo not given) 20%
COc1ccc(CCC(=O)NCc2nc3cccnc3n2Cc2ccc(OC)cc2)cc1 -9.1%
CCOC(=O)c1c(NC(=O)CS(=O)(=O)c2ccc(Cl)cc2)sc2c1CCCC2 -2.92%
COc1ccc(Cl)cc1NC(=O)CSc1nc2ccccc2nc1N1CCCCC1 3.76%
Cc1nn(C)c2c1c(C(F)(F)F)cc(=O)n2C(C)C(=O)N1CCN(c2ccccc2)CC1 (stereo not given) 0.987%
CCOC(=O)c1cc(-c2ccccc2)n(CCCC(=O)Nc2ccc(C)c(C)c2)c1C 5.89%
Cn1c(=O)c2c(ncn2CC(=O)Nc2cc(Cl)cc(Cl)c2)n(C)c1=O -0.94%
O=C(CCCCn1c(=O)c2ccccc2n(CC(=O)Nc2cccc(F)c2)c1=O)NCc1ccccc1Cl 6.46%
COc1cc(NCc2ccc3nc(N)nc(N)c3c2C)cc(OC)c1OC 0.904%
CN(Cc1ccccc1)C(=O)c1cc2c(s1)-c1ccc(Cl)cc1SC2 0.175%
Cc1ccc(S(=O)(=O)N[C@@H](Cc2ccccc2)C(=O)CCl)cc1 -5.35%
COc1cc(/C=C/c2nc(C#N)c(NC(C)c3ccccc3)o2)cc(OC)c1OC (stereo not given) 29.6%
O=C(O)CCc1ccc(-c2ccccc2)n1-c1cccc(Br)c1 -6.14%
CC(C)(OCc1nn(Cc2ccccc2)c2ccccc12)C(=O)O 3.79%
O=C(c1ccc(Cl)cc1)n1nc(-c2ccco2)nc1NCc1cccs1 3.84%
CCc1ccc(Oc2nc3c(C)cccn3c(=O)c2/C=C(\C#N)c2nc3ccccc3s2)cc1 -1.53%
CCOC(=O)CCN(c1ccccc1)S(=O)(=O)c1ccc2[nH]c(=O)ccc2c1 -0.956%
Cc1ccc(NC(=O)CCSc2nc(-c3ccc4c(c3)OCO4)cc(C(F)(F)F)n2)cc1 -0.146%
O=C(NCC(c1cccs1)S(=O)(=O)c1cccs1)c1ccc(C(F)(F)F)cc1 (stereo not given) 2.19%
CCOc1ccccc1NC(=O)N1CCCn2nc(C)cc21 2.27%
O=C(Cc1csc2nc(-c3ccccc3)cn12)NCc1ccc(F)cc1 -10.2%
COc1cccc(N(Cc2nnc3n2CCCCC3)C(=O)Nc2cccc(Cl)c2)c1 -17.9%
CCOCCCNC(=O)CN1C(=O)c2c(c3ccccc3n2C)C1c1ccc(OC)cc1 (stereo not given) -9.75%
Cc1ccc(-n2ncc3c(N(CCO)Cc4ccccc4)ncnc32)cc1 9.03%
COc1ccc(N(C(=O)COc2ccc(Br)cc2)S(=O)(=O)c2ccc(C)cc2)cc1 1.57%
O=C(OCc1ccccc1Cl)c1ccc(-c2nnn(Cc3ccccc3Cl)n2)cc1 -1.89%
CCOC(=O)c1c(S(=O)(=O)N2CCCC(C(=O)Nc3ncccc3C)C2)c(C)n(C)c1C (stereo not given) 3.08%
Cc1ccc(NC(=O)Cn2cc(S(=O)(=O)NC(C)C)c(S(=O)(=O)NC(C)C)c2)cc1Cl -1.35%
Cc1cc(C)c(S(=O)(=O)Nc2cccc(-c3cn4ccccc4n3)c2)c(C)c1 -5.48%
Cc1ccc(NC(=O)Cn2c(=O)n(CCc3ccccc3)c(=O)c3c4c(sc32)CCCC4)cc1C -1.85%
Cc1ccc(C)c(CN2C(=O)c3ccccc3S(=O)c3ccc(C(=O)NCc4ccco4)cc32)c1 (stereo not given) -41%
COc1ccc(Cn2ccc3nc(C)c(C(=O)Nc4ccc(OC)cc4OC)cc3c2=O)cc1 -5.06%
Cc1ccc(-c2nnc(Nc3ccc(O)cc3)c3ccccc23)cc1S(=O)(=O)NCC1CCCO1 (stereo not given) -7.67%
CC(C)n1c(=O)c2oc3ccccc3c2n(Cc2ccccc2F)c1=O -8.07%
COc1cccc(NC(=O)c2ccc(CNS(=O)(=O)c3ccc4c(c3)C(C)(C)C(=O)N4C)cc2)c1 -4.92%
Cc1c(Cl)cccc1NC(=O)CSc1cc(-c2ccccc2)ncn1 -2%
O=C(/C=C/c1ccco1)Nc1ccc(Cl)c(-c2nc3cc(Cl)ccc3o2)c1 5.42%
Cc1ccc(N2CC(NC(=O)/C=C\c3ccc4c(c3)OCO4)CC2=O)cc1 (stereo not given) -13.1%
COc1ccc(CNC(=O)Cn2ccc3cc(S(=O)(=O)N4CCCCCC4)ccc32)c(OC)c1 -2.14%
Cc1cc2ccccc2n1-c1ccc(C(=O)N2CCC(C(=O)NCc3ccc(F)cc3)CC2)s1 -21.2%
COC(=O)c1c(SCC(=O)Nc2ccccc2OC)[nH]c2ccccc2c1=O -6.56%
COc1ccc(Oc2nc3c(c(=O)n(Cc4ccccc4Cl)c(=O)n3C)n2C)cc1 -20.5%
COc1ccc(-c2nc3scc(CCNS(=O)(=O)c4cccc(C(C)=O)c4)n3n2)cc1 18.9%

outcome, inactive:
CCOC(=O)c1c(C)[nH]c(C)c1S(=O)(=O)N1CCN(c2ccccc2OC)CC1
CC1=C(C(=O)Nc2ccccc2)C(c2ccccc2Cl)n2ncc(C(=O)Nc3cccc(C)c3)c2N1 (stereo not given)
CCOC(=O)c1c(C)oc2ncnc(N3CCN(c4cccc(Cl)c4)CC3)c12
Clc1ccc(CCNC(c2cccc(Cl)c2)c2nnc(-c3ccccc3)o2)cc1 (stereo not given)
Cn1cc(S(=O)(=O)N2CCCCCC2)cc1C(=O)N1CCN(c2ccc(Cl)cc2)CC1
CCOc1ccc(CNC(=O)Cn2c(=O)c3cccn3c3ccc(F)cc32)cc1OC
CCCCN(C)CCNC(=O)Cn1ncc2c([nH]c3ccccc32)c1=O
Cc1ccc(CNC(=O)Cn2c(=O)n(-c3ccccc3)c(=O)c3c2c2cc(C)ccc2n3C)cc1
COc1ccc(CCCc2nnc(SCC(=O)Nc3ccccc3F)o2)cc1C
Cc1ccc(NC(=O)CCc2c(C)nn(-c3ccc(N4CCOCC4)nn3)c2C)cc1F
Cc1ccc(NC(=O)C2CCN(c3nn4c(=O)cc(C)nc4s3)CC2)cc1
O=C(C1CC1)N1CCc2cc(Br)cc(S(=O)(=O)N3CCN(c4ccccc4F)CC3)c21
